According to the supplement of paper PMC7826260:
This is one part of the list. The data describe in vitro nicking of single-stranded DNA by Rep domains (3 µM enzyme, 1 h, 37 °C); shown is the middle of each 90-letter strand. The score is log2 (uncut reads / reads without enzyme); the lower, the more was cut; hits are not called. Reads are scaled to the total; where an enzyme cuts many sequences, the uncut ones exceed 0.

Columns and labels:
Test in all cases: uncleaved DNA left, log2 of reads against the no-enzyme library (log2 ratio); higher = less cleavage (more negative = more Rep cleavage of the k-mer); sequences stand for … in CTCGTCCG…ACCGGAGA
[1] = test system: T1, Rep nickase domain of Muscovy duck circovirus
T1 sequence (protein, residues 1-111, tag omitted): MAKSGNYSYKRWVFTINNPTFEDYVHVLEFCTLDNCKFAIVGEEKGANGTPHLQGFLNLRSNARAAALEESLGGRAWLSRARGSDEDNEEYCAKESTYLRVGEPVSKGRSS
Method: (§1)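 A pool of 90-nt single-stranded DNAs with seven random bases just before the constant AC of the nick site (name = the seven bases) was cut by 3 µM recombinant His6-SUMO-tagged Rep nickase domain (300 nM DNA, 50 mM HEPES pH 8.0, 50 mM NaCl, 1 mM MnCl2, 1 h, 37 °C, three replicates). Uncut DNA was amplified and sequenced.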

[2] = test system: T2, Rep nickase domain of banana bunchy top virus
T2 sequence (protein, residues 1-94, tag omitted): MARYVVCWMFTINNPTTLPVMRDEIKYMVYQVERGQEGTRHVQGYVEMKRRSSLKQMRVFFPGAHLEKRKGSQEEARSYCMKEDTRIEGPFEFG
Method: as §1

[3] = test system: T3, Rep nickase domain of cabbage leaf curl virus
T3 sequence (protein, residues 1-116, tag omitted): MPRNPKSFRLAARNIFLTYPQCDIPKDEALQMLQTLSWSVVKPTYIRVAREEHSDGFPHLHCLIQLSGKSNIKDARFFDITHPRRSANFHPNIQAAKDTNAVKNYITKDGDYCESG
Method: as §1

[4] = test system: T4, Rep nickase domain of chickpea chlorotic dwarf virus
T4 sequence (protein, residues 1-124, tag omitted): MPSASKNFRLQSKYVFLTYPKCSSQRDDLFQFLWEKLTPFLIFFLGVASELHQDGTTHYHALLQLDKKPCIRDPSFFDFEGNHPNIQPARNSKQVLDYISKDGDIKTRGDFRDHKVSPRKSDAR
Method: as §1

[5] = test system: T5, Rep nickase domain of faba bean necrotic yellows virus
T5 sequence (protein, residues 1-98, tag omitted): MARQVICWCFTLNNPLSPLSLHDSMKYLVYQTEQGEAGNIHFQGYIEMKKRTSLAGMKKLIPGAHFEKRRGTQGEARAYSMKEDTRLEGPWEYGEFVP
Method: as §1

[6] = test system: T6, Rep nickase domain of maize striate mosaic virus
T6 sequence (protein, residues 1-117, tag omitted): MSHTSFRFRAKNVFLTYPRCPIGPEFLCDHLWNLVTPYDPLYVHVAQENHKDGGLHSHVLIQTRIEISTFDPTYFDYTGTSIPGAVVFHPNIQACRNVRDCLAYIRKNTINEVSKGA
Method: as §1

[7] = test system: T7, Rep nickase domain of porcine circovirus 2
T7 sequence (protein, residues 2-116, tag omitted): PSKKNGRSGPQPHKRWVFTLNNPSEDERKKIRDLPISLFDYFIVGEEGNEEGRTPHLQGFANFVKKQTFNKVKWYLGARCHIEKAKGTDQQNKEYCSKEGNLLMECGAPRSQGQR
Method: as §1

[8] = test system: T8, Rep nickase domain of tomato golden mosaic virus
T8 sequence (protein, residues 1-124, tag omitted): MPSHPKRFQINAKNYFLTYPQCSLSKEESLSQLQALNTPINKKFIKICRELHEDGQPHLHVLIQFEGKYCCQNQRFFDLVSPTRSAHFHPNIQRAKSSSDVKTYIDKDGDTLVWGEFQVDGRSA
Method: as §1

[9] = test system: T9, Rep nickase domain of tomato yellow leaf curl virus
T9 sequence (protein, residues 1-136, tag omitted): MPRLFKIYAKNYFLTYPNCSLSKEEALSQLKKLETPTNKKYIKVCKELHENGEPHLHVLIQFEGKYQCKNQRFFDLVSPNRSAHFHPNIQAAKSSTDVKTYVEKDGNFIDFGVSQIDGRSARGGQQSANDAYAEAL
Method: as §1

[10] = test system: T10, Rep nickase domain of wheat dwarf virus
T10 sequence (protein, residues 1-137, tag omitted): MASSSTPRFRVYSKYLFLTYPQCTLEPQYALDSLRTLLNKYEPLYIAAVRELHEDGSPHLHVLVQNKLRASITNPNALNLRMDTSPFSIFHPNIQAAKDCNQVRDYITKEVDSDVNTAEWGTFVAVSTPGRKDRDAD
Method: as §1

Row | Sequence | uncleaved DNA left (log2) [1] | uncleaved DNA left (log2) [2] | uncleaved DNA left (log2) [3] | uncleaved DNA left (log2) [4] | uncleaved DNA left (log2) [5] | uncleaved DNA left (log2) [6] | uncleaved DNA left (log2) [7] | uncleaved DNA left (log2) [8] | uncleaved DNA left (log2) [9] | uncleaved DNA left (log2) [10]
1 | CTGATAA | 0.0721 | 0.101 | -0.106 | -0.131 | -0.0726 | -0.356 | -0.0434 | 0.176 | 0.0393 | 0.121
2 | CAGGTAT | 0.222 | 0.0757 | 0.205 | 1.44 | 0.211 | 1.84 | 0.192 | 0.131 | -0.0628 | 0.0867
3 | GGAAAGT | 0.106 | 0.0778 | 0.843 | 1.79 | 0.0123 | 2.06 | 0.21 | 0.0708 | 0.057 | 0.235
4 | AACGACT | 0.00633 | 0.112 | 0.0154 | 0.313 | 0.0859 | 1.62 | 0.0222 | -0.0215 | -0.0512 | 0.0552
5 | AGAGAGA | 0.063 | 0.0565 | 0.307 | 0.843 | 0.0333 | 0.495 | 0.162 | 0.0747 | -0.0331 | 0.0416
6 | CCAGTCA | 0.0292 | 0.0138 | 0.0362 | -1.04 | 0.038 | -0.999 | -0.138 | -0.0405 | 0.00764 | -0.0649
7 | TTCATAA | 0.0787 | 0.0448 | -0.0205 | -0.103 | -0.0406 | -0.247 | -0.012 | 0.103 | 0.0547 | -0.00614
8 | GGAACAG | -0.028 | 0.00138 | 0.806 | 2.05 | 0.000578 | 2.18 | 0.2 | -0.0128 | -0.0391 | 0.107
9 | ACAGTAA | 0.0574 | -0.00811 | -0.116 | -0.267 | -0.00692 | -0.585 | 0.0333 | 0.159 | 0.0101 | -0.0244
10 | GAGGCGA | 0.00461 | 0.021 | -0.0936 | 0.00404 | 0.0474 | -0.18 | 0.109 | -0.00163 | 0.0339 | -0.0491
11 | GAGTGTG | 0.0506 | -0.0274 | -0.507 | -0.474 | 0.0634 | -0.777 | -0.0784 | -0.041 | 0.00336 | -0.0662
12 | TTCACGA | -0.0117 | 0.0312 | 0.166 | 0.0355 | -0.0311 | -0.247 | 0.0323 | 0.023 | -0.108 | -0.138
13 | AGACCTG | -0.00574 | 0.0539 | 0.307 | 1.07 | -0.0403 | 1.72 | 0.0581 | -0.0597 | 0.0385 | 0.162
14 | AAATTTT | -4.08 | -1.85 | -4.9 | -3.72 | -0.162 | -3.8 | -4.72 | -4.2 | -1.81 | -4.66
15 | GCTGAGT | 0.0439 | -0.0823 | 0.037 | 0.25 | 0.0693 | 0.0814 | 0.148 | 0.174 | 0.00726 | -0.0154
16 | TAATGGG | 0.0281 | 0.0159 | -1.07 | -1.12 | -0.0863 | -1.14 | 0.154 | -0.0276 | 0.056 | -0.0779
17 | GCGTCTC | 0.0993 | 0.0368 | 0.24 | 0.454 | 0.062 | 0.76 | -0.0327 | 0.0836 | 0.134 | 0.11
18 | GATCGAG | 0.0274 | 0.0282 | 0.429 | 0.855 | -0.0217 | 0.219 | 0.18 | 0.0172 | -0.00592 | 0.000273
19 | TTGACCG | -0.0335 | -0.0219 | -0.178 | -0.198 | -0.0379 | -0.627 | 0.0308 | -0.0795 | -0.0315 | -0.046
20 | GCACAGA | 0.0311 | 0.112 | 0.0903 | 0.532 | 0.0541 | -0.00931 | 0.0964 | -0.0104 | 0.0714 | 0.171
21 | CGGCCTG | -0.0227 | -0.0137 | -0.0576 | 0.467 | -0.0186 | 1.57 | -0.05 | -0.181 | -0.161 | 0.000705
22 | GCCGCCG | -0.0808 | -0.118 | -0.688 | -0.359 | -0.125 | -0.76 | 0.0904 | -0.11 | -0.0707 | -0.208
23 | GCACAGC | 0.149 | 0.153 | -0.0639 | 0.278 | 0.0142 | -0.297 | 0.161 | 0.0759 | 0.146 | 0.153
24 | CTGCTGG | 0.148 | -0.0344 | -0.172 | 0.043 | 0.149 | -0.58 | 0.133 | 0.0263 | 0.0373 | -0.0766
25 | GTACCGC | 0.0394 | 0.00551 | 0.0938 | 0.175 | 0.0602 | 0.025 | -0.0318 | 0.0107 | 0.0562 | 0.0376
26 | CCCCAGA | -0.0321 | -0.0366 | 0.0416 | -0.216 | 0.142 | -0.768 | -0.13 | -0.0473 | -0.0916 | -0.0483
27 | TCCAGTA | 0.0355 | 0.00246 | 0.0225 | -0.69 | -0.0557 | -0.444 | 0.0118 | 0.18 | -0.0133 | -0.0125
28 | ACGGTGG | -0.167 | -0.172 | -0.58 | -0.458 | -0.112 | -0.966 | 0.0424 | -0.0764 | -0.144 | -0.15
29 | TGGGTCT | -0.0866 | -0.0466 | 0.666 | 1.54 | -0.0214 | 2.08 | 0.155 | -0.000652 | -0.0605 | 0.0738
